Measurements: PubChem BioAssay AID624417 (National Center for Advancing Translational Sciences (NCATS), 2012)
Among all 410,000 compounds or so, about 6,400 (1.6%) were called active. The inconclusive results got no clear call from the source; some entries with a clear call stand among them for comparison. The call rests on the fitted dose curve; in most records, active means well fitted inhibition curve with a large enough effect; inconclusive means small, poorly fitted or top-dose-only effect; inactive means no such curve, though single readings can be large or run the other way. No potency is given beside an inconclusive call; the fits are too rough.
Further: nearly all actives have a fitted effect of over 55% in size.
On the % scale 0 is the no-effect control and ±100 the full control effect; potency means the concentration at half of the fitted maximal effect; tags describe the fitted curve by direction and shape.

Each molecule was assayed against Glucagon-like peptide 1 receptor (Homo sapiens) (UniProt P43220) (assay: qHTS of GLP-1 Receptor Inverse Agonists (Inhibition Mode)). Conditions: HEK293 GLP-1R CRE-luciferase, luminescence, 24 h, GLP-1R form is constitutively active; activity change, negative = inhibition: at 38.3 µM (top of the series) unless noted.
Sequence of UniProt P43220 (P43220 whole entry, looked up): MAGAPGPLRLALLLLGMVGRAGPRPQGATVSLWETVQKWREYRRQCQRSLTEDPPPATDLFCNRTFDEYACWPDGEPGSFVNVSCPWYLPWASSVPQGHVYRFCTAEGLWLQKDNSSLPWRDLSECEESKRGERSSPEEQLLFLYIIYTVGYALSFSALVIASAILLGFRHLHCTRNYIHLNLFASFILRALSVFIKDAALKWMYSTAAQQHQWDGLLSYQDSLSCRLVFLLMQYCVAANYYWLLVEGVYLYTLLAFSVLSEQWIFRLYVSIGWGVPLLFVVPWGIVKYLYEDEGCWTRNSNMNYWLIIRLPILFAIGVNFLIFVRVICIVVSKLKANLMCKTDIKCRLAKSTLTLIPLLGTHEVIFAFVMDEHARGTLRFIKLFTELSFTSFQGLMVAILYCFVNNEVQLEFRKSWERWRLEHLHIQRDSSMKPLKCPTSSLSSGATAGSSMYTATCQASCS
In short: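 Cells are plated, allowed 12 hours at 37 deg C, then treated with compounds for 24 hr before luciferase detection reagent is added and luminescence is read after 12 min at room temperature. The HEK293 line carries constitutively active GLP-1R with a cAMP-responsive reporter.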
`COc1cc(CNCc2ccccc2)cc(Cl)c1OC` was tested, and the Potency was inconclusive [inhibitor, single point]. In the case of `CC(=O)c1ccc(N2CCN(c3ccc(S(=O)(=O)NCCCN(C)C)cc3[N+](=O)[O-])CC2)cc1`, the Potency is reported as inconclusive [inhibitor, full curve, poor fit]. In the case of `Cc1cc(CN2CCCC(C(=O)Nc3cccc(-n4cccn4)c3)C2)cc(C)c1O` (stereo not drawn), the Potency is reported as inconclusive [inhibitor, partial curve, poor fit]. In the case of `O=C1C(Cl)=C(NC(=O)c2ccccc2)C(=O)C(Cl)=C1NC(=O)c1ccccc1`, the activity change, negative = inhibition is reported as inconclusive: -95.7% [inhibitor]. For `CC(c1ccco1)N(C(=O)COc1ccc(Cl)cc1)c1ccccn1` (stereo not drawn), the Potency was inconclusive [inhibitor, partial curve]. With `Cc1ccc(F)cc1NCC(=O)Nc1ccc(Br)cc1` the Potency was inconclusive [inhibitor, single point]. For `COC(=O)C1=C(C)Nc2nnnn2C1c1ccc(Cl)cc1Cl` (stereo not drawn), the Potency was inconclusive [inhibitor, partial curve, poor fit]. For `CC(C)CCn1c(N)c(S(=O)(=O)c2cccs2)c2nc3ccccc3nc21`, the “activity change, negative = inhibition” value was inactive: -21.2%. In the case of `CCN(CC(=O)NC(=O)Nc1ccccc1F)Cc1ccccc1`, the Potency is reported as inconclusive [inhibitor, partial curve, poor fit]. `Cc1cccc(Cn2c(=O)n(CCCC(=O)NCc3ccco3)c(=O)c3ccccc32)c1` was tested, and the Potency was inconclusive [inhibitor, single point]. For `O=C(Nc1ccc(F)cc1)c1nc(S(=O)(=O)Cc2ccccc2)ncc1Cl`, the Potency was inconclusive [inhibitor, full curve, poor fit]. In the case of `CC(C(=O)NNS(=O)(=O)c1cccc(C(F)(F)F)c1)n1nnc(N2CCOCC2)n1` (stereo not drawn), the “activity change, negative = inhibition” value is reported as inactive: 10.1%. In the case of `O=C(CCn1nc(-c2ccc(Cl)cc2)ccc1=O)N1CCN(c2ccccc2)CC1`, the Potency is reported as inconclusive [inhibitor, single point]. In the case of `CCOC(=O)N1CCN(S(=O)(=O)c2cc(OCC(N)=O)c(C)cc2Cl)CC1`, the “activity change, negative = inhibition” value is reported as inactive: -7.1%. For `Cc1ccc(C(=O)Nc2ccc(SC(F)F)cc2)s1`, the Potency was inconclusive [inhibitor, partial curve]. For `O=C(CNC(=S)N(Cc1ccc(F)cc1)C1CCCCC1)NC1CC1`, the Potency was inconclusive [inhibitor, single point]. With `CC(=O)C[C@H](O)CC(=O)[C@H]1OC(=O)[C@H](C)CCCCc2ccccc21` the “activity change, negative = inhibition” value was inactive: -9.24%. `CCSCCc1nnc(NC(=O)Nc2cccc(C(F)(F)F)c2)s1` was tested, and the Potency was inconclusive [inhibitor, full curve].
